Results from US11939397B2, “ENTPD2 antibodies, combination therapies, and methods of using the antibodies and combination therapies” (Novartis AG, priority 2018, dated 2024).

T1: human ENTPD2 (Homo sapiens, UniProt Q9Y5L3)
T1 construct: residues 29-462 of human or cyno ENTPD2 were cloned into expression vector; GP67 signal peptide (N); made in house; host or cells: High Five (Trichoplusia ni) insect cells, baculovirus
T1 sequence (Q9Y5L3 29-462): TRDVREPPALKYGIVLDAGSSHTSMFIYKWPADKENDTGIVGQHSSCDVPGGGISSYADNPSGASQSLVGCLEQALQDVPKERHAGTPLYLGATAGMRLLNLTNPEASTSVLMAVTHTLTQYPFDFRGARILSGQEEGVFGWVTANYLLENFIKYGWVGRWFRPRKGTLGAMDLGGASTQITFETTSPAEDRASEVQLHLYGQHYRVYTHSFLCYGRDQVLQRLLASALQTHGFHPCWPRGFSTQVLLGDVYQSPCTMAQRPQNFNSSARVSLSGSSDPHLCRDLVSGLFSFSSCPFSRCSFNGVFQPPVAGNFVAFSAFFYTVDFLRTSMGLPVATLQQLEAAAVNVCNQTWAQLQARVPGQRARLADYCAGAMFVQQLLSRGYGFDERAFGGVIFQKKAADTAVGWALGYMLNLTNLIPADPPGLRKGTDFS

T2: mouse ENTPD2 (Mus musculus, UniProt O55026)
T2 construct: residues 29-462 of mouse or rat ENTPD2 (the extracellular domain); mouse IgK signal peptide (N); made in house; host or cells: FreeStyle 293-F cells, transient
T2 sequence (O55026 29-462): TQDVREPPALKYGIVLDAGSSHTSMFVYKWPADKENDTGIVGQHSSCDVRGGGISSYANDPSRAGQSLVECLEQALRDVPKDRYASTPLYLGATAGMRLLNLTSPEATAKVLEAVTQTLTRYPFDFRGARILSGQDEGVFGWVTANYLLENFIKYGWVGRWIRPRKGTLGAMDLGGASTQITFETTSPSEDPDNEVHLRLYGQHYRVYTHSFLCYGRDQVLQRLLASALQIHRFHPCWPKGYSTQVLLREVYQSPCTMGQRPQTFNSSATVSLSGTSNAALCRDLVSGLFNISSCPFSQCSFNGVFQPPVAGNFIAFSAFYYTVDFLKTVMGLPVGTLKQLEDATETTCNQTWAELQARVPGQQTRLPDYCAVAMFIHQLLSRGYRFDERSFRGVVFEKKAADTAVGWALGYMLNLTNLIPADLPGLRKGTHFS

T3: ENTPD2 (Homo sapiens, UniProt Q9Y5L3)
T3 sequence (Q9Y5L3 1-495): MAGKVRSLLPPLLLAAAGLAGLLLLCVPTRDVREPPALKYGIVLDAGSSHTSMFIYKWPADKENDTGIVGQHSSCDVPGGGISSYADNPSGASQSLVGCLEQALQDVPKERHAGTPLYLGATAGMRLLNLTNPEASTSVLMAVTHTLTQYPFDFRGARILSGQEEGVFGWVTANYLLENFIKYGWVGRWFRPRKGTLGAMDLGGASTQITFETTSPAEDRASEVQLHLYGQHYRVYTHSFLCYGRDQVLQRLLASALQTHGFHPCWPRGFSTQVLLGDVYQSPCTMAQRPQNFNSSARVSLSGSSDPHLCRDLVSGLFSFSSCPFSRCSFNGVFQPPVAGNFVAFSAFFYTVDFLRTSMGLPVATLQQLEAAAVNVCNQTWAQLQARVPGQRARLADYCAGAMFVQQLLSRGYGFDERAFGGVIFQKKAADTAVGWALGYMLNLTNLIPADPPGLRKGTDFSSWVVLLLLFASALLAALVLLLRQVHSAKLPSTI


How the values were obtained:
[1] = biological target: T1, human ENTPD2; assay: Biacore SPR affinity to human ENTPD2 ECD; format: binding; conditions: 25° C.
Description: (§1) Biacore™ Screening: Affinity was measured by determining the kinetic rate constants using surface plasmon resonance (SPR) on a Biacore™ T200 or T100 with the T200 sensitivity upgrade instrument (Biacore™, GE Healthcare). Antibodies were captured on CM5 sensor chips (Biacore™, GE Healthcare) prepared with a mouse anti-human IgG Fc antibody (ThermoFisher catalogue #05-4200) amine coupled to the surface. […] ENTPD2 analytes were allowed to associate for 180 s and dissociate for up to 1800 s depending on the off-rate of the antibody at a flow rate of 30 μL/min. The running buffer was PBS pH 7.2 (prepared from a Corning 10× stock, cat #46-013-CM)+0.05% Tween 20. Regeneration was accomplished with 30 s injections of 3 or 4 M MgCl2 to remove all the captured antibody and remaining complex from the surface, after which fresh antibody was captured. The raw data were analyzed using Biacore™ T200 Evaluation Software version 1.0 and fit to a 1:1 binding model, with all parameters set to fit globally except for RI, which was set to fit locally.

[2] = tested on: cynomologus (cyno) ENTPD2; assay: Biacore SPR affinity to cyno ENTPD2 ECD; format: binding, cynomolgus monkey; conditions: 25° C.
Description: as §1

[3] = biological target: T2, mouse ENTPD2; assay: Antibody specificity: binding to mouse ENTPD2; conditions: SPR
Description: FACS screening: Specific binding of candidate antibodies to endogenously expressed ENTPD2 was assessed by flow cytometry. Cells were rinsed thoroughly with 1×PBS and treated with Accutase (Millipore #SCR005) to lift from growth plates and resuspended at approximately 1×10^5 cells/90 μL in 1×FACS buffer (2% FBS+0.1% NaN3 in PBS). In a 96-well U-bottom plate, 10 μL of 10× antibody solution in FACS buffer was pre-seeded and 90 μL of cell suspension was added. […] Geometric mean fluorescence intensity was calculated on live single cells using FlowJo software.
ELISA screening on directly coated antigen: Maxisorp™ 384-well plates (Thermo Nunc) were coated with 2 μg/ml of recombinant ENTPD2 diluted in PBS. […] Plates were washed again and bound antibodies were detected by incubation with anti-hFc gamma conjugated to horseradish peroxidase (HRP; Jackson ImmunoResearch, Cat #115-035-098, diluted 1:5000 in 1×TBST+2% BSA) for 1 hr at room temperature followed by washing with TBST and afterwards addition of SureBlue Peroxidase substrate (KPL, #52-00-03) substrate. After 15 min, absorbance at 650 nm was recorded and analyzed in GraphPad Prism6.
Biacore™ Screening: Affinity was measured by determining the kinetic rate constants using surface plasmon resonance (SPR) on a Biacore™ T200 or T100 with the T200 sensitivity upgrade instrument (Biacore™, GE Healthcare). […]

[4] = biological target: T3, ENTPD2; assay: Hybridoma mAb screen, cell-based assay for inhibition of ATP hydrolysis by ENTPD2; conditions: hybridoma-derived mAbs
Excerpt: Hybridoma-derived mAbs were screened in a cell-based assay for inhibition of ATP hydrolysis by ENTPD2.

Human ENTPD2 ka [1] | Human ENTPD2 kd [1] | Cyno ENTPD2 kd [2] | Mouse ENTPD2 BIACore KD [3] | inhibition of ATP hydrolysis by ENTPD2 (screen outcome) [4] | Molecule | Cyno ENTPD2 ka [2]
300000 M⁻¹ s⁻¹ | 0.00022 s⁻¹ | 0.0057 s⁻¹ | No binding |  | mAb4: anti-human ENTPD2 antibody generated by humanization and optimization of mAb16 (antibody) heavy: QIQLQESGPGLVKPSQTLSLTCTVSGYSITSGYYWNWIRQHPGKGLEWIGYISYDADNNYNPSLKNRVTISRDTSKNQFSLKLSSVTAADTAVYYCAGGYYRYGLGSYRGSYYYVMDYWGQGTTVTVSSASTKGPSVFPLAPSSKSTSGGTAALGCLVKDYFPEPVTVSWNSGALTSGVHTFPAVLQSSGLYSLSSVVTVPSSSLGTQTYICNVNHKPSNTKVDKRV[human IgG1 Fc skipped] light: ETVLTQSPATLSVSPGERATISCKASQSVDYEGHSYMNWYQQKPGQAPRLLIYAASNLESGIPARFSGSGSGTDFTLTISSVEPEDAATYYCQQSNEDPPTFGGGTKLEIKRTVAAPSVFIFPPSDEQLKSGTASVVCLLNNFYPREAKVQWKVDNALQSGNSQESVTEQDSKDSTYSLSSTLTLSKADYEKHKVYACEVTHQGLSSPVTKSFNRGEC | 140000 M⁻¹ s⁻¹
270000 M⁻¹ s⁻¹ | 0.00016 s⁻¹ | 0.003 s⁻¹ | No binding |  | mAb5: anti-human ENTPD2 antibody generated by humanization and optimization of mAb16 (antibody) heavy: QIQLQESGPGLVKPSQTLSLTCTVSGYSITSGYYWNWIRQHPGKGLEWIGYISYDADNNYNPSLKNRVTISRDTSKNQFSLKLSSVTAADTAVYYCAGGYYRYGLGSYRGSYYYVMDYWGQGTTVTVSSASTKGPSVFPLAPSSKSTSGGTAALGCLVKDYFPEPVTVSWNSGALTSGVHTFPAVLQSSGLYSLSSVVTVPSSSLGTQTYICNVNHKPSNTKVDKRV[human IgG1 Fc skipped] light: ETVLTQSPATLSVSPGERATISCKASQSVDYDGNSYMNWYQQKPGQAPRLLIYAASNLESGIPARFSGSGSGTDFTLTISSVEPEDAATYYCQQSNEDPPTFGGGTKLEIKRTVAAPSVFIFPPSDEQLKSGTASVVCLLNNFYPREAKVQWKVDNALQSGNSQESVTEQDSKDSTYSLSSTLTLSKADYEKHKVYACEVTHQGLSSPVTKSFNRGEC | 290000 M⁻¹ s⁻¹
 |  |  |  | lead inhibitory | mAb16: hybridoma-derived lead inhibitory anti-human ENTPD2 mAb (antibody) heavy: DIQLQESGPGLVKPSQSLSLTCSVTGYSITSGYYWNWIRQFPGNKLEWMGYISYDGDNNYNPSLKNRISITRDTSKNQFFLKLSSVTTEDTATYYCAGGYYRYGLSYYYVMDYWGQGTSVTVSSASTKGPSVFPLAPSSKSTSGGTAALGCLVKDYFPEPVTVSWNSGALTSGVHTFPAVLQSSGLYSLSSVVTVPSSSLGTQTYICNVNHKPSNTKVDKRV[human IgG1 Fc skipped] light: DTVLTQSPASLAVSLGQRATISCKASQSVDYDGNSYMNWYQQKPGQPPKLLIYAASNLESGIPARFSGSGSGTDFTLNIHPVEEEDAATYYCQQSNEDPPTFGGGTKLEIKRTVAAPSVFIFPPSDEQLKSGTASVVCLLNNFYPREAKVQWKVDNALQSGNSQESVTEQDSKDSTYSLSSTLTLSKADYEKHKVYACEVTHQGLSSPVTKSFNRGEC | 
